Source: paper PMC4336329 (PLoS ONE, 2015)
Hit rate of the full screen: of about 310,000 compounds, about 2,200 (0.71%) showed an effect of 50% or more. The effect is printed as a negative number. The list shows a part of the results.

These compounds were tested against human ether-à-go-go-related gene (hERG) potassium channel (human, UniProt Q12809) (assay: primary screen, population patch clamp on CHO cells stably expressing hERG).
Sequence of human ether-à-go-go-related gene (hERG) potassium channel (Q12809 whole entry, looked up): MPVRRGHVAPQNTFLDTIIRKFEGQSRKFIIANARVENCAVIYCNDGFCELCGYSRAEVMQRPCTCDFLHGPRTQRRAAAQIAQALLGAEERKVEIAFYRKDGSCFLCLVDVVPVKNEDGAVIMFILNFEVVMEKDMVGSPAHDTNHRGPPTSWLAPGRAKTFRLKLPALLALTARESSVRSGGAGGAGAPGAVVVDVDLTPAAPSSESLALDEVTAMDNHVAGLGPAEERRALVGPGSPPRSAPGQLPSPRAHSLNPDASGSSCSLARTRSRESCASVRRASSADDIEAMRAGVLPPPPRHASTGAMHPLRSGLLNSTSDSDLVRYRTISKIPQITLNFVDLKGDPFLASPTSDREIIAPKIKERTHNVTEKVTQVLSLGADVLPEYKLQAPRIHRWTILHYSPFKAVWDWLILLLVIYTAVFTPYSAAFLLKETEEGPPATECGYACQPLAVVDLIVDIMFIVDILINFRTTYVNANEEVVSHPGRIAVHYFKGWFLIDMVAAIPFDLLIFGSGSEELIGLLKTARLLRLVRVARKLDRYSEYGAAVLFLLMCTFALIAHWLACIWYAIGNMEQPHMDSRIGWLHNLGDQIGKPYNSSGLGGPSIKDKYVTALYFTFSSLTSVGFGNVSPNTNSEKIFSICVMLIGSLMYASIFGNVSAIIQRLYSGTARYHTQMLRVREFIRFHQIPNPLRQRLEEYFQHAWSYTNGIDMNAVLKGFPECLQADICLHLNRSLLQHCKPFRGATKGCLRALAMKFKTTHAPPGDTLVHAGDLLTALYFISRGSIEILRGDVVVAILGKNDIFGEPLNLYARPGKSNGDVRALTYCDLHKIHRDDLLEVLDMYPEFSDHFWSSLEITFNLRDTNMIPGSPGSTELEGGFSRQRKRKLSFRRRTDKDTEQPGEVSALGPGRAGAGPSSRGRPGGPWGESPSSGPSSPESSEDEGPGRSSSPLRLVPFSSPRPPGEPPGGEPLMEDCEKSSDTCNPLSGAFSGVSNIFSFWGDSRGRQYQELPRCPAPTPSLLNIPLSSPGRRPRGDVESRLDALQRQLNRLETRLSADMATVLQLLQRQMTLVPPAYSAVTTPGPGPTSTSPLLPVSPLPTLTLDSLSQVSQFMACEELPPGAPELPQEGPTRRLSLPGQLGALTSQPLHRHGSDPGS

SMILES	hERG current change (%, negative = inhibition) at 1uM
C=CCSC1=N/C(=C/c2ccsc2)C(=O)N1c1ccccc1	14.3%
Cc1cc(OCC(=O)NCCc2cccc(F)c2)c2c(C)cc(=O)oc2c1	-2.12%
Cc1noc(C)c1COC(=O)CCOc1ccccc1	-8.29%
Cc1ccc(/C(N)=N/OC(=O)Cc2cccs2)cc1	3.81%
CCOC(=O)c1cnn(-c2nc(OC)cc(OC)n2)c1C(F)(F)F	0.651%
O=C(/C=C/c1ccc(Cl)c(Cl)c1)n1cccn1	5.43%
Cc1ccc(/C=N\NC(=O)c2cncc(Br)c2)o1	17%
O=C(CN1C(=O)c2ccccc2C1=O)Nc1cccc(S(=O)(=O)Nc2ccccc2Cl)c1	16.2%
O=C(O)c1cc(-c2ccc3c(c2)OCO3)nc2ccc(Cl)cc12	12.5%
CN1CCN(C(=O)c2ccc(Cn3cc(Cl)cn3)o2)CC1.Cl	16.1%
Cc1ccsc1C(=O)NCc1ccc(F)cc1	9.8%
Cc1ccc(S(=O)(=O)N2CCOCC2)cc1C(=O)NCc1cn2ccsc2n1	13.7%
O=C(CCCc1nc2ccccc2s1)Nc1ccccc1	5.44%
Cc1cc(NCCCn2ccnc2)n2nc(C)c(-c3ccc(Cl)cc3)c2n1	-16.8%
CCN(CC)S(=O)(=O)c1cccc(C(=O)OCC(=O)c2ccc3c(c2)OCCO3)c1	8.89%
O=C(CSc1nnc(-c2ccccn2)o1)Nc1ccccc1	0.0597%
Cc1ccc2c(c1)C1CN(C)CCC1N2S(=O)(=O)c1cc(C(F)(F)F)ccc1Cl (centres unmarked)	10.9%
Cc1nc(CSc2nnc(N)s2)cs1	11.8%
CC1CCCC(NC(=O)c2n[nH]c(=O)c3ccccc23)C1C (centres unmarked)	7.26%
Cc1cc(C)cc(NC(=O)N2CCC(NC(=O)c3ccco3)CC2)c1	12.8%
CC1=CC2=NC(=O)/C(=C\c3cccn3CCOc3cc(C)cc(C)c3)C(=N)N2O1	4.96%
CCCc1nc2ccc(Br)cc2c(=O)n1-c1ccc([N+](=O)[O-])c(C(F)(F)F)c1	9.78%
NC(=O)c1cc([N+](=O)[O-])ccc1NCc1cnccn1	11.6%

SMILES	hERG current change (%, negative = inhibition) at 1uM
Cc1cccc(Nc2nnc(SCC(=O)NCc3cccs3)s2)c1C	11.4%
O=S(=O)(N/N=C/c1ccc(N2CCOCC2)cc1)c1ccccc1	-2.78%
Cc1cccc(NC(=O)NC(C)CCc2ccccc2)c1 (centres unmarked)	0.507%
O=C(NCCc1ccccc1)C1CCCN(C(=O)Nc2ccc(F)cc2)C1 (centres unmarked)	4.75%
O=S(=O)(Nc1cccc(-c2ccc3nncn3n2)c1)c1ccccc1F	6.36%
O=C(Nn1cc(C(=O)Nc2ccccc2F)c2ccccc2c1=O)c1cnccn1	4.74%
CC1=CC(C)(C)Nc2ccc(C)cc21	-27.6%
CN=Cc1nc(-c2ccccc2)oc1O	12.9%
CC1CCC(C(C)C)C(OC(=O)C2=C3c4ccccc4S(=O)(=O)N3CC2)C1 (centres unmarked)	14%
CCN(CC(=O)NCc1ccncc1)S(=O)(=O)c1ccccc1	8.27%
CCOc1ccccc1CN1CCN(Cc2ccc3cc(F)ccc3n2)CC1CCO (centres unmarked)	-44.1%
Cc1c(CCOC(=O)c2ccccc2)sc[n+]1Cc1ccccc1.[Cl-]	-7.52%
CC1(C)CC(=O)c2c(Cc3ccccc3)n[nH]c2C1	13.3%
COCCNC(=S)NCc1cccs1	19.2%
CC(NC(=O)c1cn(C(C)c2ccccc2F)nn1)c1ccncc1 (centres unmarked)	4.51%
CCNC(=O)CSC1=N/C(=C\c2ccc(O)c(OCC)c2)C(=O)N1c1ccc(OC(F)F)cc1	12%
O=c1[nH]c(Cc2cccs2)nc2ccccc12	11.2%
CC1=NN(C(=O)CCCc2ccccc2)C(O)(C(F)(F)F)C1 (centres unmarked)	10.3%
COCCn1c(SCC(=O)Nc2ccc(C(N)=O)cc2)nc2c([nH]c3ccccc32)c1=O	13.5%
O=C1CC(N2CCN(c3ccccc3)CC2)C(=O)N1c1ccc(Cl)cc1 (centres unmarked)	7.95%
O=S(=O)(Nc1c(O)ccc2ccccc12)c1ccccc1	7.42%
COc1ccc(OC)c(/C=N/NC(=O)CNC(=O)c2ccc(S(=O)(=O)N3CCOCC3)cc2)c1	5.07%
Cc1cc(C)cc(NC(=O)CC23CC4CC(C2)CC(n2nnc(C)n2)(C4)C3)c1	-3.48%

SMILES	hERG current change (%, negative = inhibition) at 1uM
Cl.N=c1sccn1CC(=O)Nc1cc(Cl)ccc1[N+](=O)[O-]	14.5%
O=C(O)c1ccc(NC(=S)NC(=O)c2ccc(-c3ccc(Br)cc3)o2)cc1	19.6%
COc1ccc(-c2nc3ccccc3c(=O)n2-c2ccc(OC)cc2)cc1	13.8%
COc1ccc(CC(=O)N/N=C(\C)CC(=O)NCc2ccco2)cc1OC	17.4%
Cc1nn(-c2ccccc2)c(N)c1N=Nc1ccc(Cl)cc1	7.22%
COc1ccc(N2CCN(C(=O)[C@@H](NC(=O)c3cc(OC)cc(OC)c3)C(C)C)CC2)cc1	15.8%
O=C(CCNS(=O)(=O)c1ccccc1)NCCSc1ccc(Br)cc1	10.4%
CCOCc1c(C(=O)N2CCN(Cc3ccc(Br)s3)CC2)oc2ccccc12	-11.4%
CCn1c(SCC(=O)N2CCC(C)CC2)nc2c(c1=O)SC(C)C2 (centres unmarked)	1.53%
Cc1ccc2c(c1)C(=O)C(=O)N2CC(=O)OC(C)C	8.55%
Cc1c(NC(=O)C(C)OC(=O)Cc2ccccc2)c(=O)n(-c2ccccc2)n1C (centres unmarked)	18.2%
CC(Cc1ccccc1)/[N+]([O-])=C\c1ccc(C(F)(F)F)cc1 (centres unmarked)	0.398%
CCC(=Nc1ccc(OC)cc1OC)c1c(O)n(C)c(=O)n(C)c1=O	3.57%
CC(=O)NCc1cn2c(C)csc2n1	1.56%
O=C(CNc1cccc([N+](=O)[O-])c1)N/N=C/c1ccc(F)cc1	9.66%
N#CC(c1cccnc1)N1CCOCC1 (centres unmarked)	10.1%
O=C(NCc1ccccc1)C(c1ccc(F)cc1)N(Cc1ccco1)C(=O)c1ccccn1 (centres unmarked)	2.13%
CC[n+]1c(/C=C(\C)SC)sc2ccccc21.COS(=O)(=O)[O-]	9.66%
O=C(CSc1nc2c(sc3ccccc32)c(=O)n1-c1ccccc1)NCc1ccco1	3.96%
CCn1c(SCC(=O)Nc2cccc(C(C)=O)c2)nnc1C(C)C	11.1%
C/C(CC(=O)Nc1ccccn1)=N\NC(=O)c1ccccc1O	7.76%
Cc1ccc(S(=O)(=O)N2CCC(C(=O)Nc3ccncc3)CC2)cc1	4.42%
CCn1cnc2sc(-c3ccccc3)cc2c1=O	1.92%

SMILES	hERG current change (%, negative = inhibition) at 1uM
Cn1nc(-c2ccc(C(=O)Nc3cccnc3)cc2)c2ccccc2c1=O	1.54%
COC(=O)Cc1[nH]nc2c1C(c1ccc(O)c(OC)c1)C(C#N)=C(N)O2 (centres unmarked)	16.7%
CCC(=O)c1ccc(O)c(CC=C(C)C)c1	11.5%
CC(C)(C)c1ccc(C(=O)NCc2nnc(SCC(=O)N3CCCc4ccccc43)n2-c2ccccc2)cc1	5.23%
CC(=O)c1cccc(NC(=O)CO/N=C2/CCCc3nonc32)c1	7.59%
Cc1cc(C)c(C(=O)NCC2CCCO2)c(C)c1C(=O)NCC1CCCO1 (centres unmarked)	17.1%
O=S(=O)(Nc1ccc(-c2ccc3nncn3n2)cc1)c1cccs1	24%
Cc1cc(OCC(=O)NC(Cc2ccc(Cl)cc2)C(=O)O)c2c3c(c(=O)oc2c1)CCCC3 (centres unmarked)	16%
Cc1ccc(-n2c(SCC(=O)O)nc3c(sc(=S)n3-c3ccc(C)c(C)c3)c2=O)cc1	10.1%
COCCn1c(C)cc(C2=NNC(=Nc3ccc(Cl)cc3Cl)SC2)c1C	7.13%
COc1ccccc1N(CC(=O)NC(C)(C)C)C(=O)c1ccc(Cl)nc1	9.74%
COc1ccc(OC)c(-n2c(O)c(C=Nc3c(C)n(C)n(-c4ccccc4)c3=O)c(=O)[nH]c2=S)c1	10.6%
COCCn1c(N)c(Sc2ccccc2[N+](=O)[O-])c(=O)[nH]c1=O	0.355%
CCOCCCNC(=O)c1cn(CC)c2ccc(S(=O)(=O)N3CCCC3)cc2c1=O	15%
CC(=O)N1CCOc2ccc(S(=O)(=O)N(C)c3cccc(C)c3)cc21	14.4%
CCOCCCNCC(O)c1ccccc1.O=C(O)C(=O)O (centres unmarked)	5.08%
CCn1c(=O)n(CC)c2cc(N3CCCC3)c(NC(=O)c3ccccc3)cc21	8.27%
CCn1cc(CN2CCC(n3nccc3NC(=O)Cc3ccccc3)CC2)cn1	8.12%
O=C(COC(=O)Cc1ccccc1[N+](=O)[O-])NC1CCCC1	4.18%
Cc1ccc(C(=O)CC2(O)C(=O)Nc3ccccc32)s1 (centres unmarked)	18%
